From PMC4336329 (PLoS ONE, 2015) come the findings set out here.

SMILES strings stand for the structures. Out of some 310,000 compounds screened, about 14,000 (4.5%) showed an effect of 50% or more. Effects have a minus sign here. Some of the results follow.
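Further: peak tail current of the secondary pulse compared with the same well before compound.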

In this assay the target is human ether-à-go-go-related gene (hERG) potassium channel (human, UniProt Q12809). The assay can be described thus: primary screen, population patch clamp on CHO cells stably expressing hERG.
Chain of human ether-à-go-go-related gene (hERG) potassium channel (Q12809 whole entry, looked up): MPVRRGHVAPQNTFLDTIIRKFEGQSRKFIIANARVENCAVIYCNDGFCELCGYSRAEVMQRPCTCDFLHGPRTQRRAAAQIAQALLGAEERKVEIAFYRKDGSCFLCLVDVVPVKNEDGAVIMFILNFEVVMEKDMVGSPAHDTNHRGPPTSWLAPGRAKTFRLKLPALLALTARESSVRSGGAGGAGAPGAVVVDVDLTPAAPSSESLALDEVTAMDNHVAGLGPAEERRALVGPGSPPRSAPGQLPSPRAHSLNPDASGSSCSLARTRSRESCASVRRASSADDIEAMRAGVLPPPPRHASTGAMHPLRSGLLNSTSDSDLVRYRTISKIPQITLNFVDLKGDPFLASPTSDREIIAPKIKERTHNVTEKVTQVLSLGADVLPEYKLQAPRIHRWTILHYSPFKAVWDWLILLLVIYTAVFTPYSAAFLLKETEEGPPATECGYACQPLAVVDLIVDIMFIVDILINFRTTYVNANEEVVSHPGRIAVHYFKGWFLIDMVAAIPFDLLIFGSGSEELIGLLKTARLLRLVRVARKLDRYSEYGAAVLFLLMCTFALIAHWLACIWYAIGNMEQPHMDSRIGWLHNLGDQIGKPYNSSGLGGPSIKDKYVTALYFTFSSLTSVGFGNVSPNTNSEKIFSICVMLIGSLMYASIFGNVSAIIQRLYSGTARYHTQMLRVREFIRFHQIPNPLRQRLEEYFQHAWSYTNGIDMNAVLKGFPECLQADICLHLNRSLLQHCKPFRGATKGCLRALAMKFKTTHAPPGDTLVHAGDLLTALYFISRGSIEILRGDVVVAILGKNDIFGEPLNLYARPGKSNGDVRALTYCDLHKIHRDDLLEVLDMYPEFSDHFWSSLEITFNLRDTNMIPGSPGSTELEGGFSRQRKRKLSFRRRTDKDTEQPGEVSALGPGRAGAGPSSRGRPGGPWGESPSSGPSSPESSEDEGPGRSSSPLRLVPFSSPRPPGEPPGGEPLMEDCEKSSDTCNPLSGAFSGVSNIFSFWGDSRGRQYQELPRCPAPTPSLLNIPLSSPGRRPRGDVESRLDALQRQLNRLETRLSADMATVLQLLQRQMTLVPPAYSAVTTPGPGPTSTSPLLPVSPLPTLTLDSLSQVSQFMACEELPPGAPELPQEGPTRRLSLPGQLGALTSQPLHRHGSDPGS
Turning to `O=c1cc(-c2ccncc2)oc2c1ccc1ccccc12`, the “hERG current change (%, negative = inhibition) at 10uM” value is on record as -4.57%.

For `O=C(Cc1ccc(Cl)c(Cl)c1)Nc1cccnc1`, the “hERG current change (%, negative = inhibition) at 10uM” value was -6.99%.

As to `CCOc1ccc(N=C2NC(=O)/C(=C/C(=O)OC)S2)cc1`, the “hERG current change (%, negative = inhibition) at 10uM” value was 13.1%.

As for `CCc1ccc(NC(=O)COC(=O)CN2C(=O)COc3ccccc32)cc1`, the “hERG current change (%, negative = inhibition) at 10uM” value is -3.56%.

Turning to `COC(=O)C1=C(C)N(c2cccc(C(C)=O)c2)C(=O)C1`, the “hERG current change (%, negative = inhibition) at 10uM” value came out at 7.45%.

As to `CC(C)OC(=O)CSc1nnc(C2CCCCC2)n1N`, the “hERG current change (%, negative = inhibition) at 10uM” value is 13.4%.

In the case of `O=C(CCCNS(=O)(=O)c1cccc2nsnc12)NCc1ccc(Cl)cc1`, the “hERG current change (%, negative = inhibition) at 10uM” value was -37.9%.

In the case of `CCC(=O)Nc1ccc2c(c1)nc(CCN1CCC(C)CC1)n2C`, the “hERG current change (%, negative = inhibition) at 10uM” value was 1.48%.

As to `CCN(CC)S(=O)(=O)c1ccc(NC2c3ccccc3C(=O)N2CCN2CCOCC2)cc1` (stereo not drawn), the “hERG current change (%, negative = inhibition) at 10uM” value is listed as -37%.

As for `Cc1cc2c(cc1S(=O)(=O)CCC(=O)NCCc1ccccc1)OCC(=O)N2`, the “hERG current change (%, negative = inhibition) at 10uM” value is -44.6%.

Consider `COc1ccc(/C=N/NC(=O)CNc2c(Br)cc(C)cc2Br)c(C(=O)O)c1OC`, for which the “hERG current change (%, negative = inhibition) at 10uM” value was 4.18%.

For `COCCCn1c(SCc2ccccc2)nc2cc(OC)c(OC)cc2c1=N`, the “hERG current change (%, negative = inhibition) at 10uM” value was -0.437%.

For `Nc1nc(CSC(=S)N2CCOCC2)nc(Nc2ccccc2)n1`, the “hERG current change (%, negative = inhibition) at 10uM” value worked out at 7.38%.

In the case of `C/C(=N\NC(=O)c1cc(Br)ccc1O)c1ccccn1`, the “hERG current change (%, negative = inhibition) at 10uM” value is recorded as 15.4%.

`CC(C)[C@H](NC(=O)NCCc1ccc(F)cc1)C(=O)O`: the “hERG current change (%, negative = inhibition) at 10uM” value is given as 3.8%.

For the compound `COc1cccc(C(=O)Nc2cccc(OC(C)=O)c2)c1`, the “hERG current change (%, negative = inhibition) at 10uM” value was determined as 2.26%.

For `COc1ccc(C(=O)NCC(=O)OCC(=O)Nc2cc([N+](=O)[O-])ccc2F)cc1`, the “hERG current change (%, negative = inhibition) at 10uM” value is reported as -23.4%.

For the compound `Cc1ccc(C(=O)CSc2nnc(C)s2)cc1`, the “hERG current change (%, negative = inhibition) at 10uM” value was -7.21%.

Consider `COc1ccc(N=Cc2ccc[nH]2)cc1`, for which the “hERG current change (%, negative = inhibition) at 10uM” value stood at 16%.

Consider `O=C(O)CCc1nc2ccccc2c(=O)[nH]1`, for which the “hERG current change (%, negative = inhibition) at 10uM” value worked out at 38.7%.

On to `CCCNC(=O)C(Cc1ccc(I)cc1)NC(=O)C1CC1` (stereo not drawn), for which the “hERG current change (%, negative = inhibition) at 10uM” value stood at 0.47%.

For the compound `CC1CC(c2ccccc2)NS(=O)(=O)O1` (stereo not drawn), the “hERG current change (%, negative = inhibition) at 10uM” value came out at 1.46%.

As for `COCC(C)NC(=O)c1cccc([N+](=O)[O-])c1` (stereo not drawn), the “hERG current change (%, negative = inhibition) at 10uM” value came to 15%.

Take `Cc1ccc(N2CC(C(=O)OCC(=O)C(C)(C)C)CC2=O)cc1` (stereo not drawn): the “hERG current change (%, negative = inhibition) at 10uM” value is given as -4.69%.

On to `[O-][n+]1onc2c1CCC1N(O)CCC21O` (stereo not drawn), for which the “hERG current change (%, negative = inhibition) at 10uM” value stood at 3.18%.

Turning to `CCO[C@@H]1OC(C(=O)N2CCCCCCC2)=C[C@H](c2cn(C(C)=O)c3ccccc23)[C@H]1CCCO`, the “hERG current change (%, negative = inhibition) at 10uM” value was -41.1%.

On to `COc1ccc(N/C(=N/c2nc(C)cc(C)n2)NC(=O)c2ccccc2)cc1`, for which the “hERG current change (%, negative = inhibition) at 10uM” value stood at 14.5%.

Regarding `CCOc1ccc(C(=O)NC(C(=O)NCc2ccccn2)C(C)C)cc1` (stereo not drawn), the “hERG current change (%, negative = inhibition) at 10uM” value came to 16.8%.

For the compound `S=c1[nH]nc(COc2ccccc2)n1Cc1ccccc1`, the “hERG current change (%, negative = inhibition) at 10uM” value amounted to 16%.

As to `CC(Cl)C(=O)Nc1ncc(C(F)(F)F)cc1Cl` (stereo not drawn), the “hERG current change (%, negative = inhibition) at 10uM” value was -6.46%.

In the case of `O=C1CC(c2ccco2)=Nc2ccccc2N1`, the “hERG current change (%, negative = inhibition) at 10uM” value was determined as 3.5%.

Take `Cc1cc(C)n(/N=C\c2c(O)ccc3ccccc23)c(=O)c1C(N)=O`: the “hERG current change (%, negative = inhibition) at 10uM” value is reported as -1.55%.

Consider `CS(=O)(=O)c1ccc2nnn(OCC(=O)Nc3cccc(C#N)c3)c2c1`, for which the “hERG current change (%, negative = inhibition) at 10uM” value was -5.29%.

For `CN(Cc1ccccc1F)C(=O)c1ccc(Oc2ccccc2)cc1`, the “hERG current change (%, negative = inhibition) at 10uM” value is listed as -23.3%.

With `O=C(c1ccc(CS(=O)c2cccc(Cl)c2)o1)N1CCN(C2CCCCC2)CC1` (stereo not drawn), the “hERG current change (%, negative = inhibition) at 10uM” value is -29.3%.

Regarding `O=C(O)c1ccccc1CSc1nc2ccccc2o1`, the “hERG current change (%, negative = inhibition) at 10uM” value stood at 18.5%.

For `COc1ccc(C(=O)Nc2cccc(C(=O)NCc3ccco3)c2)cc1`, the “hERG current change (%, negative = inhibition) at 10uM” value is reported as -21%.

Consider `O=C(NCCNc1ccc([N+](=O)[O-])cc1)c1ccco1`, for which the “hERG current change (%, negative = inhibition) at 10uM” value is -23.7%.

In the case of `O=c1c2ccccc2[nH]c(=S)n1-c1cccc(S(=O)(=O)N2CCCC2)c1`, the “hERG current change (%, negative = inhibition) at 10uM” value is 20.5%.

On to `CC(=O)c1ccc(NC(=S)Nc2ccc3cn[nH]c3c2)cc1`, for which the “hERG current change (%, negative = inhibition) at 10uM” value is 8.92%.

For the compound `COc1cc(CC(=O)Nc2nccs2)cc(OC)c1OC`, the “hERG current change (%, negative = inhibition) at 10uM” value is given as -9.76%.

For the compound `Cc1ccc(S(=O)(=O)N2CCN(Cc3cc(C(C)C)ccc3O)CC2)cc1`, the “hERG current change (%, negative = inhibition) at 10uM” value amounted to 6.56%.

For the compound `Cl.O=C(CCN1CCCCCC1)Nc1ccc(F)cc1`, the “hERG current change (%, negative = inhibition) at 10uM” value is reported as -42.8%.

Regarding `Cl.O=C(CSc1nc(O)cc(=O)n1-c1ccccc1)Nc1ccccn1`, the “hERG current change (%, negative = inhibition) at 10uM” value was 27.8%.

`Cl.OC(CN1CCOCC1)CN(c1ccccc1)c1ccccc1` (stereo not drawn): the “hERG current change (%, negative = inhibition) at 10uM” value is -28.5%.
